# Data from article PMC12136788.
# The other results are listed elsewhere or left out.
# T1: UNK ZnF1-3 (human, UniProt Q9C0B0 31-174)
# T1 sequence: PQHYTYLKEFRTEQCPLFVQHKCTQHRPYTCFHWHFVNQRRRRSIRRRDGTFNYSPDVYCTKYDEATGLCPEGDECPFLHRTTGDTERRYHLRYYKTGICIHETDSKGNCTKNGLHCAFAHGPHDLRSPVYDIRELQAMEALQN
# B1: 54496482_54496602_1247_3pUTR_ENSMUSG00000039156_ENSMUST00000071083|mouse|control|control (ssRNA)
# RNA: GGGAGUUCUACAGUCCGACGAUCUCAGCUCACACUCUGCGCCCUCCCUCAGCUCCCGCAGCCGACAGGCCUCCUCCUUGGCAUAGUUGAUUUCAUCCAUCAUUUUCCGUUCCAGAUUUUGCUUUUCUACAGCAACAGUUCUGUCAACAGAGGAUUGAGCAUCA
# B2: chrX:39613801:39613802:+_ENSMUSG00000025862_ENSMUST00000069619|mus_mus|motif|central (ssRNA)
# RNA: GGGAGUUCUACAGUCCGACGAUCCAAGUUUAAAGGUGGAUGGCUCUCCCCUUGUGGAUUAGGCUCCUUAAAAGCAAAUUCGGUACCAUCUUUGUGGAGCAUGGCAAUGGCUUCUCUGGUUUUCAAUUGAUCAAGUCCAAAAGUCAACAGAGGAUUGAGCAUCA
# B3: chr1:66480114:66480115:+_ENSMUSG00000015222_ENSMUST00000024639|mus_hu|FALSE|FALSE (ssRNA)
# RNA: GGGAGUUCUACAGUCCGACGAUCUGGCCUGUGGCGGAUGUUCUUCAGAGAGCCACAUUUGGAUGUCACAUGGCUUAGGUCUAUUUUCUUGGUAACAAUUUGUACCUGCCCCCCUUUAGGCUGGUAUUUGAUGUUGUCUGUUGACAACAGAGGAUUGAGCAUCA
# B4: chr14:61435135:61435136:+_ENSG00000020426_ENST00000539616|hu_hu|FALSE|FALSE (ssRNA)
# RNA: GGGAGUUCUACAGUCCGACGAUCUAAAUACUUUAACACAGCUGCUAGUGGAAGGACUGUGUUGUGCAGCUGCACAUAGCUAUAAUUUUAUAAGUCUGCUUUACUUUUGCUAGCUCCCUGGUUCAGCUCCAAGGUCCAAAUCUUCAACAGAGGAUUGAGCAUCA
# B5: chr7:35424158:35424159:-_ENSMUSG00000030499_ENSMUST00000108069|mus_hu|FALSE|FALSE (ssRNA)
# RNA: GGGAGUUCUACAGUCCGACGAUCGUACAUCAGCAUCUUUACAAUAUUAAAGGAGCCAUAUACAAGUCUACAGCCAUUGUACACAGGAUGGUGAUGGCUGGGGAGCCCCGCCCACCAGUCCUCUGCAGUUUCUCCACCGGAGAACAACAGAGGAUUGAGCAUCA
# B6: chr11:102546300:102546301:-_ENSMUSG00000020925_ENSMUST00000092569|mus_mus|FALSE|FALSE (ssRNA)
# RNA: GGGAGUUCUACAGUCCGACGAUCAAAAAUGACUGGGCCAAACUUGGCCCGUGAGUGGAGUCUUCUGACCCCUGGUAUAAAAUAAUCUUAUCAGAGAAACUGUUCUCUUGAGGCUUUUGAUACCUGUUGCCCAAAGUCAGGUACCAACAGAGGAUUGAGCAUCA
# B7: chr17:74801258:74801259:+_ENSMUSG00000024069_ENSMUST00000024870|mus_mus|motif|central (ssRNA)
# RNA: GGGAGUUCUACAGUCCGACGAUCGUUGAUUGCACCGAACAGAAGGAUCUUCCAGGACCUCCGGUCAGCUGCGACAAGUCGGAAUUCCUGUAGUAACUUUCCAAAAAAAGAUCUCUGUGGCUUUCGAAAGAGAUGAAUCGUCCCCAACAGAGGAUUGAGCAUCA
# B8: chr22:32894459:32894460:+_ENSG00000100225_ENST00000397426|hu_hu|motif|central (ssRNA)
# RNA: GGGAGUUCUACAGUCCGACGAUCACAAAUCAAUCACAUGAAUGACAGCCGGCCAUCAGUUGGCCGACCCCUGCUGGGUCGGAAGGGAAAUCUGUCAUUGGGGCCGCCUCGCCCUGGCAAGAUGGGGUUAGGUCCUGGAAGUGGCAACAGAGGAUUGAGCAUCA
# B9: 12955530_12963200_418_CDS_ENSG00000085415_ENST00000262124|human|control|control (ssRNA)
# RNA: GGGAGUUCUACAGUCCGACGAUCAGUAACAGAUGUUCUGCUAUCCACCAGAGUUGUCCUUUUAACCCAGUGGCUCUGUCCUCGCAGUUUAUCAUUUGAUUCUCCUACUAUUUCUUCCCAUACAGCAGCUGUUCGGUCAAAAGACAACAGAGGAUUGAGCAUCA
# B10: 12044635_12044755_1381_3pUTR_ENSG00000065559_ENST00000353533|human|control|control (ssRNA)
# RNA: GGGAGUUCUACAGUCCGACGAUCGUAUUACAAGGAUGCACGUUCUAGGUGACAGGAGUAUACAGACAUGAUGGAAACGAACACCAAUCUUAUUGCACAUGGUGUCUGGGCGAGCAAUAAAAACACUGUGAUACGGGAUGAAAACAACAGAGGAUUGAGCAUCA
# B11: chr7:151048522:151048523:+_ENSG00000013374_ENST00000566856|hu_mus|hu_hu_hu_mus_True|8_78 (ssRNA)
# RNA: GGGAGUUCUACAGUCCGACGAUCCUGUUUCUUAUUUAUUACGAUCUUGAUGUAAUUUUCUUGAAGUCCGAAAGUUUCAGCUAUUUGACACCUCAGGUCUCUACCAGUGACAUGCAAGCGGGUCUCCAACAAGUUUUUCUUAUCCAACAGAGGAUUGAGCAUCA
# B12: 50251413_50251831_3075_CDS_ENSG00000165525_ENST00000546046|human|control|control (ssRNA)
# RNA: GGGAGUUCUACAGUCCGACGAUCUCUUGAUAAAUCUGUGUCCUUUACGCUGCGGAAUAAGUCUUUUUCUCUUGCUGUUGCUUCUUUGGAAUGCAUGAAACUAUUCAAGGCUGUUUUUGCAGCUUUUCCCUUUUUCUGCACUCCCAACAGAGGAUUGAGCAUCA
# B13: chr5:138643207:138643208:+_ENSG00000015479_ENST00000510056|hu_hu|motif|central (ssRNA)
# RNA: GGGAGUUCUACAGUCCGACGAUCCAUCCUUCCAAGAGAUGCUGGCAUACUUAAAGACUGGGUAGCAGCAGCAAGAAGGCCGGUUCCUGCCGCAGACAGGUCACGCCCAUGACCCUGUGAGUCCCUACUGAGAGAUGACUGCUGCAACAGAGGAUUGAGCAUCA
# B14: chr10:33221514:33221515:-_ENSG00000150093_ENST00000302278|perfect_dup|motif|central (ssRNA)
# RNA: GGGAGUUCUACAGUCCGACGAUCAUUUGGCCCUGCUUGUAUACAUUCUCCGCAAGAUUUGGCAUUUGCUUUUAAACAUCGGUUUUUAUCUGUUUGGCCAAAUACAGAACAAAUCAAACUGAUCAAUCCAAUCCAGGAAACCAGCAACAGAGGAUUGAGCAUCA
# B15: chr7:127792870:127792871:+_ENSMUSG00000030884_ENSMUST00000033176|mus_hu|FALSE|FALSE (ssRNA)
# RNA: GGGAGUUCUACAGUCCGACGAUCUGUGAAAUGGUUCUGAACGAAGUAAUGUAACUCCUCUGAUGUCACUUUUCCAAUCCUAUAGUCAGGACAAUACAAGGGAUUAGCCAAGGCAUUCCGGUAAGCUGCUGCAUGCAAAUUUUCCAACAGAGGAUUGAGCAUCA
# B16: chr15:81756291:81756292:-_ENSMUSG00000022476_ENSMUST00000023113|mus_hu|FALSE|FALSE (ssRNA)
# RNA: GGGAGUUCUACAGUCCGACGAUCUCAGCUCCUCGGCAAUGGAGUCGUUGAGCUUCCUCUCAAACUGCCAAGGGGGGAUCCGGACGGUGUCCACCAUUUCCACCAGGACGAACAUCCCGGCCUGCGCUGGGGGCUCUGGGAACACAACAGAGGAUUGAGCAUCA
# B17: 44150526_44150646_1865_CDS_ENSG00000106624_ENST00000223357|human|control|control (ssRNA)
# RNA: GGGAGUUCUACAGUCCGACGAUCGCACCCCAGCACCUCCAGGCGCAUGCACAGGCUGCCAUUCCAGGUGAGUGGGUAGAUGCGGAUGAAACGAGCCACCACCGGCUCUGGGAGCUCACUCAGCACGGGUGUGUCCUUGUCCACCAACAGAGGAUUGAGCAUCA
# B18: chr5:67447025:67447026:+_ENSMUSG00000037736_ENSMUST00000038188|mus_mus|motif|central (ssRNA)
# RNA: GGGAGUUCUACAGUCCGACGAUCCUGCACCUAUAAGGAACCCACAUGCAAAGAACCGUCUAGCAUGGAAAUAAAUAAUUGCGGGUCAUACUCCAUAAGACACAGAAAAAGUUAUUGCUUACAUAACAGAGAAACACCUACCUGCAACAGAGGAUUGAGCAUCA
# B19: chr4:76721835:76721836:+_ENSG00000138768_ENST00000264904|hu_mus|hu_hu_hu_mus_True|8_58 (ssRNA)
# RNA: GGGAGUUCUACAGUCCGACGAUCGUUUGGCUGGGGUUUCUGAGACGCUCUGGAAUAUAACUCAUGUUUGCUAAUAAUCCUAGUUUCCUCUAUGAAAUUCUCUUUGCCAAUCCUCUUCUCUAUUAGUGUUUUAGCUUUCUCUUUCAACAGAGGAUUGAGCAUCA
# B20: chr2:47387792:47387793:-_ENSG00000143933_ENST00000272298|hu_hu|hu_hu_hu_mus_True|8_8 (ssRNA)
# RNA: GGGAGUUCUACAGUCCGACGAUCUAAGGACAAUGACAGUAAGAUAAGGGAAGAAAACAUGGAGGAAUGAAGUCCUAAUUACUAUACAUGCAUAUUUUUUGACAGUAGGGGGGGGGAACCUUUUACAUAAGUUACAAAAACAAACAACAGAGGAUUGAGCAUCA
# B21: chr3:179287964:179287965:+_ENSG00000136518_ENST00000429709|hu_hu|FALSE|FALSE (ssRNA)
# RNA: GGGAGUUCUACAGUCCGACGAUCUUUUAGAGGUGAAAUGGCCUCCAUAUUCUCCCUCGGAACACGCAGAGCAUUAGUAUCUAUGUAGUAGGUGGGACCGCCUUGUUUGCCUUUAUCGCCAUCUAUUUCCAUUAAUGUGCUUCCCAACAGAGGAUUGAGCAUCA
# B22: chr14:72190480:72190481:+_ENSG00000197555_ENST00000381232|hu_mus|FALSE|FALSE (ssRNA)
# RNA: GGGAGUUCUACAGUCCGACGAUCAAAUCCCACGGAGUUAAUGGUUCCUUCUGGCUUUUUCCAUCCAAUCAGAUAUUUGCUAGUGGCGCCCUGGCGAGGGUAGAAAGUCCUAGGUCCAGAGGAGGAUGAGGAAGAAGAGGAAAACAACAGAGGAUUGAGCAUCA
# Molecular target: T1, UNK ZnF1-3
# Assay: nsRBNS (natural sequence RNA bind-n-seq); RBNS binding buffer (assumed for nsRBNS): 25 mM Tris pH 7.5, 150 mM KCl, 3 mM MgCl2, 0.01% Triton X-100, 500 ug/ml BSA, 20 U/ml SUPERase-In, 4 C; UNK is unkempt and MSI1 is Musashi-1; names of the RNAs are library labels; protein concentration not given here; high values mean tight binding
row,Binder,binding signal
1,B1,0.837 enrichment R
2,B2,0.97 enrichment R
3,B3,0.484 enrichment R
4,B4,0.756 enrichment R
5,B5,1.59 enrichment R
6,B6,0.945 enrichment R
7,B7,0.954 enrichment R
8,B8,1.11 enrichment R
9,B9,0.754 enrichment R
10,B10,1.55 enrichment R
11,B11,0.682 enrichment R
12,B12,0.253 enrichment R
13,B13,0.77 enrichment R
14,B14,1.09 enrichment R
15,B15,1.21 enrichment R
16,B16,1.15 enrichment R
17,B17,1 enrichment R
18,B18,1.95 enrichment R
19,B19,0.481 enrichment R
20,B20,2.37 enrichment R
21,B21,0.791 enrichment R
22,B22,2.19 enrichment R
